Several values for one entry are separate records, joined by “and”; a condition that tells them apart may be missing. Equal values may be shown once. This continues a long series; more values of the same kind are listed elsewhere. Toxic doses and inconclusive results are not listed.
Test system: P388 leukemia ip, CD2F1 mice, survival T/C
Test: NCI In Vivo Anticancer Drug Screen. Data for tumor model P388 Leukemia (intraperitoneal) in CD2F1 (CDF1) mice
Conditions: endpoint: median survival time, higher = longer survival
Experimental: The antitumor activity of compounds was measured in mice bearing transplantable tumors. Survival or tumor size were measured and the results are expressed as the measurement made in the treated group (T) divided by the measurement made in the vehicle treated control group (C). The tumor model used in this assay is P388 Leukemia (intraperitoneal) in CD2F1 (CDF1) mice

In the case of O=C1c2ccccc2C(=O)c2c(NCCNCCO)ccc(NCCNCCO)c21, the T/C (dose: 0.5 mg/kg/injection, schedule: Q01DX009 (ip), vehicle: water) is reported as 155 % of control and 161 % of control, the T/C (dose: 1.0 mg/kg/injection, schedule: Q01DX009 (ip), vehicle: Klucel (hydroxypropylcellulose) (HPC)) is reported as 167 % of control and the T/C (dose: 1.0 mg/kg/injection, schedule: Q01DX009 (ip), vehicle: saline with Tween-80) is reported as 170 % of control. For the same compound, the T/C (dose: 1.0 mg/kg/injection, schedule: Q01DX009 (ip), vehicle: water) was 154 % of control and 180 % of control, the T/C (dose: 1.25 mg/kg/injection, schedule: Q01DX005 (ip), vehicle: other) was 191 % of control and the T/C (dose: 1.25 mg/kg/injection, schedule: Q01DX009 (ip), vehicle: distilled water + Tween-80) was 189 % of control. For the same compound, the T/C (dose: 2.0 mg/kg/injection, schedule: Q01DX009 (ip), vehicle: Klucel (hydroxypropylcellulose) (HPC)) was 169 % of control and 174 % of control and 191 % of control, the T/C (dose: 2.0 mg/kg/injection, schedule: Q01DX009 (ip), vehicle: acid diluted with saline) was 215 % of control and 233 % of control and the T/C (dose: 2.0 mg/kg/injection, schedule: Q01DX009 (ip), vehicle: saline with Tween-80) was 228 % of control. For the same compound, the T/C (dose: 2.0 mg/kg/injection, schedule: Q01DX009 (ip), vehicle: water) was 162 % of control and 200 % of control, the T/C (dose: 2.5 mg/kg/injection, schedule: Q01DX005 (ip), vehicle: other) was 198 % of control and the T/C (dose: 2.5 mg/kg/injection, schedule: Q01DX009 (ip), vehicle: distilled water + Tween-80) was 222 % of control. The T/C (dose: 2.5 mg/kg/injection, schedule: Q01DX009 (ip), vehicle: saline) was 181 % of control, the T/C (dose: 2.5 mg/kg/injection, schedule: Q01DX009 (ip), vehicle: water) was 187 % of control and the T/C (dose: 3.12 mg/kg/injection, schedule: Q01DX009 (ip), vehicle: saline) was 169 % of control. The T/C (dose: 4.0 mg/kg/injection, schedule: Q01DX009 (ip), vehicle: Klucel (hydroxypropylcellulose) (HPC)) was 181 % of control and 193 % of control and 194 % of control, the T/C (dose: 4.0 mg/kg/injection, schedule: Q01DX009 (ip), vehicle: acid diluted with saline) was 242 % of control and 248 % of control and the T/C (dose: 4.0 mg/kg/injection, schedule: Q01DX009 (ip), vehicle: other) was 159 % of control. The T/C (dose: 4.0 mg/kg/injection, schedule: Q01DX009 (ip), vehicle: water) was 207 % of control and 245 % of control, the T/C (dose: 4.0 mg/kg/injection, schedule: Q04DX003 (ip), vehicle: Klucel (hydroxypropylcellulose) (HPC)) was 155 % of control and the T/C (dose: 5.0 mg/kg/injection, schedule: Q01DX005 (ip), vehicle: other) was 260 % of control. The T/C (dose: 5.0 mg/kg/injection, schedule: Q01DX009 (ip), vehicle: distilled water + Tween-80) was 275 % of control, the T/C (dose: 5.0 mg/kg/injection, schedule: Q01DX009 (ip), vehicle: saline) was 189 % of control and the T/C (dose: 5.0 mg/kg/injection, schedule: Q01DX009 (ip), vehicle: water) was 252 % of control. The T/C (dose: 6.25 mg/kg/injection, schedule: Q01DX009 (ip), vehicle: saline) was 210 % of control and 252 % of control, the T/C (dose: 8.0 mg/kg/injection, schedule: Q01DX009 (ip), vehicle: Klucel (hydroxypropylcellulose) (HPC)) was 174 % of control and 179 % of control and 246 % of control and the T/C (dose: 8.0 mg/kg/injection, schedule: Q01DX009 (ip), vehicle: acid diluted with saline) was 186 % of control and 379 % of control. The T/C (dose: 8.0 mg/kg/injection, schedule: Q01DX009 (ip), vehicle: other) was 150 % of control, the T/C (dose: 8.0 mg/kg/injection, schedule: Q01DX009 (ip), vehicle: saline) was 336 % of control and the T/C (dose: 8.0 mg/kg/injection, schedule: Q01DX009 (ip), vehicle: water) was 261 % of control and 272 % of control. The T/C (dose: 8.0 mg/kg/injection, schedule: Q04DX003 (ip), vehicle: Klucel (hydroxypropylcellulose) (HPC)) was 163 % of control, the T/C (dose: 10.0 mg/kg/injection, schedule: Q01DX005 (ip), vehicle: other) was 260 % of control and the T/C (dose: 10.0 mg/kg/injection, schedule: Q01DX009 (ip), vehicle: distilled water + Tween-80) was 275 % of control. The T/C (dose: 10.0 mg/kg/injection, schedule: Q01DX009 (ip), vehicle: saline) was 258 % of control, the T/C (dose: 10.0 mg/kg/injection, schedule: Q01DX009 (ip), vehicle: water) was 291 % of control and the T/C (dose: 10.8 mg/kg/injection, schedule: Q01DX009 (ip), vehicle: saline) was 297 % of control. The T/C (dose: 12.5 mg/kg/injection, schedule: Q01DX009 (ip), vehicle: Klucel (hydroxypropylcellulose) (HPC)) was 267 % of control and 268 % of control, the T/C (dose: 12.5 mg/kg/injection, schedule: Q01DX009 (ip), vehicle: saline) was 164 % of control and 231 % of control and 240 % of control and the T/C (dose: 13.0 mg/kg/injection, schedule: Q01DX005 (ip), vehicle: saline) was 560 % of control. For the same compound, the T/C (dose: 16.0 mg/kg/injection, schedule: Q01DX009 (ip), vehicle: Klucel (hydroxypropylcellulose) (HPC)) was 186 % of control and 460 % of control, the T/C (dose: 16.0 mg/kg/injection, schedule: Q01DX009 (ip), vehicle: acid diluted with saline) was 158 % of control and 416 % of control and the T/C (dose: 16.0 mg/kg/injection, schedule: Q01DX009 (ip), vehicle: other) was 111 % of control. For the same compound, the T/C (dose: 16.0 mg/kg/injection, schedule: Q01DX009 (ip), vehicle: water) was 272 % of control and 423 % of control, the T/C (dose: 16.0 mg/kg/injection, schedule: Q04DX003 (ip), vehicle: Klucel (hydroxypropylcellulose) (HPC)) was 206 % of control and the T/C (dose: 16.0 mg/kg/injection, schedule: Q04DX003 (ip), vehicle: saline with Tween-80) was 234 % of control. For the same compound, the T/C (dose: 18.0 mg/kg/injection, schedule: Q01DX009 (ip), vehicle: saline) was 315 % of control and 409 % of control, the T/C (dose: 20.0 mg/kg/injection, schedule: Q01DX005 (ip), vehicle: other) was 260 % of control and the T/C (dose: 20.0 mg/kg/injection, schedule: Q01DX005 (ip), vehicle: saline) was 401 % of control. For the same compound, the T/C (dose: 20.0 mg/kg/injection, schedule: Q01DX009 (ip), vehicle: saline) was 86 % of control, the T/C (dose: 20.0 mg/kg/injection, schedule: Q01DX009 (ip), vehicle: water) was 262 % of control and the T/C (dose: 20.0 mg/kg/injection, schedule: Q04DX003 (ip), vehicle: saline) was 285 % of control. The T/C (dose: 21.6 mg/kg/injection, schedule: Q01DX005 (ip), vehicle: saline) was 560 % of control, the T/C (dose: 21.6 mg/kg/injection, schedule: Q01DX005 (iv), vehicle: saline) was 87 % of control and the T/C (dose: 25.0 mg/kg/injection, schedule: Q01DX005 (ip), vehicle: saline) was 330 % of control. The T/C (dose: 25.0 mg/kg/injection, schedule: Q01DX009 (ip), vehicle: Klucel (hydroxypropylcellulose) (HPC)) was 269 % of control and 189 % of control, the T/C (dose: 25.0 mg/kg/injection, schedule: Q01DX009 (ip), vehicle: saline) was 105 % of control and 123 % of control and 297 % of control and the T/C (dose: 28.8 mg/kg/injection, schedule: Q04DX003 (ip), vehicle: saline) was 446 % of control. For the same compound, the T/C (dose: 32.0 mg/kg/injection, schedule: Q01DX009 (ip), vehicle: Klucel (hydroxypropylcellulose) (HPC)) was 229 % of control and 86 % of control and 94 % of control, the T/C (dose: 32.0 mg/kg/injection, schedule: Q01DX009 (ip), vehicle: saline) was 91 % of control and the T/C (dose: 32.0 mg/kg/injection, schedule: Q01DX009 (ip), vehicle: water) was 90 % of control. The T/C (dose: 32.0 mg/kg/injection, schedule: Q04DX003 (ip), vehicle: Klucel (hydroxypropylcellulose) (HPC)) was 189 % of control, the T/C (dose: 32.0 mg/kg/injection, schedule: Q04DX003 (ip), vehicle: saline with Tween-80) was 267 % of control and the T/C (dose: 50.0 mg/kg/injection, schedule: Q01DX009 (ip), vehicle: Klucel (hydroxypropylcellulose) (HPC)) was 90 % of control. The T/C (dose: 64.0 mg/kg/injection, schedule: Q04DX003 (ip), vehicle: Klucel (hydroxypropylcellulose) (HPC)) was 232 % of control, the T/C (dose: 256.0 mg/kg/injection, schedule: Q04DX003 (ip), vehicle: saline) was 92 % of control and 98 % of control and the T/C (dose: 400.0 mg/kg/injection, schedule: Q04DX003 (ip), vehicle: Klucel (hydroxypropylcellulose) (HPC)) was 92 % of control.
